For 23 sequences, switch fluorescence ratio results are on record in the supplement of paper PMC10126150.

The subject of the series is ATP. The experiment in a line: switch fluorescence ratio, 500 uM ATP over buffer (Cy3 cluster intensity, sum of 5 cycles each) (fold (ratio)); higher = stronger signal-on switching upon ATP binding; sequences stand for … in TCGTCGGCAGCGTCAGATGTGTATAAGAGACAGTTTTTTTTTTTTTTTTTTTTTTTTT…TC. To be noted: aptamer strand: ATP DNA aptamer (quencher-CACCTGGGGGAGTATTGCGGAGGAAGG + anchor), 100 nM annealed; ATP concentration: 500 uM; one replicate. Summed up:
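Imaging in selection buffer was followed by imaging after 15 min with 500 uM ATP at 22 °C, for Cy3-labelled switching-strand clusters annealed to 100 nM quencher-labelled ATP aptamer on a modified Illumina MiSeq flow-cell. Five of these buffer/ATP cycles ran, separated by NaOH stripping and re-annealing. The fluorescence ratio per cluster is summed target-cycle over summed buffer-cycle Cy3 intensity, averaged per switch-domain sequence; clusters outside 100-1000 RFU were removed.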

Values marked as one replicate rest on one cluster of the flow cell; about a third of the high ones do not repeat.
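Further: ATP exposure 15 min at 22 °C before imaging.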

For the sequence CGGCGGTATA, the switch fluorescence ratio was 0.951. As to ATCCCGTTTT, the switch fluorescence ratio was 1.02. Take AGAAAAGCGA: the switch fluorescence ratio was determined as 1.01. For TTGGATAGAC the value was 1.04; for ATTCCAAT, 0.978; for GTTCGTTAAA, 1.04.

Consider AGTGAAGGTG, for which the switch fluorescence ratio came to 1.28.

Regarding CATGGCACTG, the switch fluorescence ratio was 0.994. In the case of AGTCGACTC, the switch fluorescence ratio was determined as 1.01.

Take AGAAGATACG: the switch fluorescence ratio is 1.05. For the sequence CTCATTGCG, the switch fluorescence ratio amounted to 1. As for GAATGTAAGA, the switch fluorescence ratio stood at 0.966.

With TGGGGTATGA, the switch fluorescence ratio came to 1.

GAATTTTCTG: the switch fluorescence ratio was found to be 0.965. For CCTCTTTGGG the value was 0.993; for TACGGATGGC, 0.936. For TCCCGACGAT the value was 1.47; for GCCACTGAGA, 1.02; for CACTGATAGA, 1.04. Regarding TCCATAGGTT, the switch fluorescence ratio was found to be 1.01.

As for AAACCTTCGC, the switch fluorescence ratio was 2.9. GTCGGCGGTA: the switch fluorescence ratio was determined as 1.02. On to AGATATGATA, for which the switch fluorescence ratio came out at 0.996.
